Measured values reported in publication PMC4081100.
The entries are a selection whose mix differs from that of the whole data set. For part of these data: At the low end of the ranking the order means little. The list shows a part of the results. For part of these data: The exact form of the protein is not confirmed.

Experiments:
Test in all cases: universal protein binding microarray (PBM)
Details in all cases: transcription factors of Arabidopsis thaliana; high values mean tight binding; most listed sequences are background and not binding sites; double strand, one strand shown
GST-ANAC092(1-176) = molecular target: T1, GST-ANAC092(1-176) (UniProt Q9FKA0)
T1 sequence: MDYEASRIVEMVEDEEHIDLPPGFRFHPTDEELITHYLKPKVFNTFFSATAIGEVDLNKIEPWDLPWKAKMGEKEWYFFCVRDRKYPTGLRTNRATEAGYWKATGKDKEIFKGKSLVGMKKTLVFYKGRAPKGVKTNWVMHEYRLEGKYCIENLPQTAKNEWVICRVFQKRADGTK

GST-NTL6(1-168) = GST-NTL6(1-168) (UniProt Q9SCK6)
GST-ANAC055(1-171) = molecular target: T2, GST-ANAC055(1-171) (UniProt Q9LDY8)
T2 sequence: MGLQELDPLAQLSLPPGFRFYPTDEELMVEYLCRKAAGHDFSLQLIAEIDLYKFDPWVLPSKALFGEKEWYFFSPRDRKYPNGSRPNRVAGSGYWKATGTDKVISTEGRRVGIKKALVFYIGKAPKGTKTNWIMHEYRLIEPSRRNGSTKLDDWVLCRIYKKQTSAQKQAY

GST-VND3 NAC domain = molecular target: T3, GST-VND3 NAC domain (UniProt Q9FH59)
T3 sequence: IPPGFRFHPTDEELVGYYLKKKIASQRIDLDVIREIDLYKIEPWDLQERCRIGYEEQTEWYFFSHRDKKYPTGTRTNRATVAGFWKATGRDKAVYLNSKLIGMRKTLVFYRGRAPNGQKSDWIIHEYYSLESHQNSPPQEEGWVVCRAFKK

[1] = molecular target: T4, GST-VOZ2 (Arabidopsis thaliana) (UniProt Q9SLB9)
T4 sequence: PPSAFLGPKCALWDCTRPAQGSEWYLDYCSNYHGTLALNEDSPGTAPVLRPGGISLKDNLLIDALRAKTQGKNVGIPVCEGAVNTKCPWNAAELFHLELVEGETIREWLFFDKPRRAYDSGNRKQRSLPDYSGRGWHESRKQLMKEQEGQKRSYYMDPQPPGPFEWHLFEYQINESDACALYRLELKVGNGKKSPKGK

GST-WRKY1(266-371) = GST-WRKY1(266-371) (UniProt Q9SI37)
GST-ATAF1 NAC domain = molecular target: T5, GST-ATAF1 NAC domain (UniProt Q39013)
T5 sequence: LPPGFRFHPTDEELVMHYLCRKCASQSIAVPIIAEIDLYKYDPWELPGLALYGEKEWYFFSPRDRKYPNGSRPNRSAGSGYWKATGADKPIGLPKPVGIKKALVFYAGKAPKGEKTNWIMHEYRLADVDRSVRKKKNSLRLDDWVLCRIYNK

GST-NAP(1-166) = molecular target: T6, GST-NAP(1-166) (UniProt O49255)
T6 sequence: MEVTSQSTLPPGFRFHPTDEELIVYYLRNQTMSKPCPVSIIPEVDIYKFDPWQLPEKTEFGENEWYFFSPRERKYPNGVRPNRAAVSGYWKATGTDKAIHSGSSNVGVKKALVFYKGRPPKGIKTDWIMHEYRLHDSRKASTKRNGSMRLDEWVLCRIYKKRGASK

GST-NTL8 NAC domain = molecular target: T7, GST-NTL8 NAC domain (UniProt Q9XIN7)
T7 sequence: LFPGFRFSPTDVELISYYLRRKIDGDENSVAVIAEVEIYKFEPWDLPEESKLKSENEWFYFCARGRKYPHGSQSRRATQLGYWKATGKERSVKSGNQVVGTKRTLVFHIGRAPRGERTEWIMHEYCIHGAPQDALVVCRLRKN

GST-VND7 NAC domain = molecular target: T8, GST-VND7 NAC domain (UniProt Q9C8W9)
T8 sequence: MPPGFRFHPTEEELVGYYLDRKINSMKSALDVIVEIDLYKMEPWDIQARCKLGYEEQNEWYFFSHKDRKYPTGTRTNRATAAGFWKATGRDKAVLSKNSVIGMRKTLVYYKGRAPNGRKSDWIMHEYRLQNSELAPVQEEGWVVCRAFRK

GST-ANAC019 NAC domain = molecular target: T9, GST-ANAC019 NAC domain (UniProt Q9C932)
T9 sequence: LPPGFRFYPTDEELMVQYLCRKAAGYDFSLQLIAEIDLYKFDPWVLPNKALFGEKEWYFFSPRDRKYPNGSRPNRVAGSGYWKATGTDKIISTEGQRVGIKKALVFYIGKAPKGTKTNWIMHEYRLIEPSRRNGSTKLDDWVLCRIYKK

[2] = molecular target: T10, GST-ANAC092(1-285) full length (UniProt Q9FKA0)
T10 sequence: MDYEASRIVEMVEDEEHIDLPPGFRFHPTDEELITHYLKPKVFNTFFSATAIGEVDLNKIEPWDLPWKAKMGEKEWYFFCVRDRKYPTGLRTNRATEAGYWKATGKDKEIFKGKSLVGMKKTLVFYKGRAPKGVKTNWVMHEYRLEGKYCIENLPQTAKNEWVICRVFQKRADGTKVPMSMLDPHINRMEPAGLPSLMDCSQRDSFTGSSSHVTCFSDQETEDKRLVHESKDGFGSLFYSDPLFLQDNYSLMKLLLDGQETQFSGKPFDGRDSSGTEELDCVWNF

GST-NST2(1-184) = molecular target: T11, GST-NST2(1-184) (UniProt Q9M274)
T11 sequence: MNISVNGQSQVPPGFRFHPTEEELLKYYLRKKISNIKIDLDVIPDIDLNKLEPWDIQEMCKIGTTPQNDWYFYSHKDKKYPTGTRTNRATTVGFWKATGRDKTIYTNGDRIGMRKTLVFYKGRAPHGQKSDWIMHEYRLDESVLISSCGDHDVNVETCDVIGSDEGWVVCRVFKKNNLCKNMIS

Sequence	binding signal (GST-ANAC092(1-176))	binding signal (GST-NTL6(1-168))	binding signal (GST-ANAC055(1-171))	binding signal (GST-VND3 NAC domain)	binding signal [1]	binding signal (GST-WRKY1(266-371))	binding signal (GST-ATAF1 NAC domain)	binding signal (GST-NAP(1-166))	binding signal (GST-NTL8 NAC domain)	binding signal (GST-VND7 NAC domain)	binding signal (GST-ANAC019 NAC domain)	binding signal [2]	binding signal (GST-NST2(1-184))
GGAAGCAA	0.318 E-score	0.36 E-score	0.136 E-score	0.118 E-score	0.0594 E-score	-0.0599 E-score							
ACGCGACC		-0.0533 E-score	-0.125 E-score	-0.00204 E-score	0.0846 E-score		-0.0194 E-score	0.0134 E-score	0.0199 E-score	0.0778 E-score			
TATCGTAA		0.146 E-score		0.143 E-score	0.136 E-score	-0.0776 E-score	0.188 E-score		-0.142 E-score		-0.0971 E-score	0.337 E-score	
ATTGCTTA		0.423 E-score	0.00293 E-score	0.16 E-score	-0.0816 E-score	-0.128 E-score	0.00324 E-score	-0.0873 E-score			-0.0471 E-score		
TTACGGAA	0.266 E-score	0.151 E-score	0.402 E-score	0.442 E-score	0.151 E-score	0.126 E-score							
GGCGTAAC		-0.176 E-score	-0.0393 E-score	0.0143 E-score	0.0254 E-score	-0.0779 E-score	0.0594 E-score		-0.0799 E-score		0.0194 E-score		
AAGAAACC	0.246 E-score			0.0406 E-score	0.143 E-score	-0.0491 E-score		-0.0181 E-score	0.435 E-score				
ACAAGTAA		0.25 E-score		0.249 E-score	0.0378 E-score	-0.0293 E-score	0.238 E-score	0.0135 E-score	-0.071 E-score		0.125 E-score	0.439 E-score	
ACTTAACC	0.197 E-score			0.203 E-score	0.223 E-score	0.0388 E-score	0.132 E-score	-0.0376 E-score	0.243 E-score			0.186 E-score	
AACGTAAA				0.252 E-score	0.0719 E-score		0.298 E-score		-0.0122 E-score	0.248 E-score	0.175 E-score		
GTACGCAA	0.482 E-score	0.121 E-score		0.413 E-score	0.178 E-score	-0.113 E-score					0.445 E-score		
GAGGGTAA	0.0757 E-score			-0.0215 E-score	0.221 E-score	-0.111 E-score		0.0116 E-score			0.0157 E-score		
AAACCCTC	-0.0213 E-score	0.141 E-score		0.0462 E-score	0.0661 E-score	-0.117 E-score	-0.0405 E-score		0.414 E-score		0.0591 E-score	-0.0104 E-score	0.0187 E-score
ACGGAACA	0.224 E-score	0.0301 E-score		0.352 E-score	0.03 E-score	0.0155 E-score			0.00676 E-score		0.418 E-score		
TAAAGCAA	0.138 E-score	0.134 E-score	-4e-05 E-score	0.135 E-score	0.0227 E-score	-0.00956 E-score	0.0247 E-score	-0.0877 E-score			0.006 E-score		
AGGAAAGC		0.253 E-score		0.00239 E-score	-0.00244 E-score	-0.126 E-score		0.0763 E-score	0.436 E-score				
CACGCTTC		0.0128 E-score		0.111 E-score	0.0148 E-score	-0.0401 E-score		0.109 E-score	-0.00272 E-score			0.437 E-score	

Sequence	binding signal (GST-ANAC092(1-176))	binding signal (GST-NTL6(1-168))	binding signal (GST-ANAC055(1-171))	binding signal (GST-VND3 NAC domain)	binding signal [1]	binding signal (GST-WRKY1(266-371))	binding signal (GST-ATAF1 NAC domain)	binding signal (GST-NAP(1-166))	binding signal (GST-NTL8 NAC domain)	binding signal (GST-VND7 NAC domain)	binding signal (GST-ANAC019 NAC domain)	binding signal [2]	binding signal (GST-NST2(1-184))
AGCTTTCC				0.0376 E-score	0.0254 E-score	-0.183 E-score	-0.0217 E-score	-0.0579 E-score	0.434 E-score				0.0462 E-score
CCACACGC		0.0233 E-score		0.163 E-score	0.195 E-score	-0.00534 E-score		0.169 E-score					
AACGTAAT				0.359 E-score	0.108 E-score	0.00175 E-score		0.286 E-score	0.114 E-score		0.266 E-score		0.309 E-score
GAAGGGAA			-0.0381 E-score	0.0307 E-score	0.0922 E-score	-0.242 E-score	0.0169 E-score	0.00645 E-score			0.101 E-score	0.0165 E-score	
GGAAGTAA		0.404 E-score		0.133 E-score	0.00189 E-score	-0.0759 E-score		-0.00424 E-score	0.203 E-score		0.151 E-score		
GTAAGGAA		0.486 E-score		0.231 E-score	0.159 E-score	0.0463 E-score		0.268 E-score	0.392 E-score				
ACGTAACA		0.133 E-score		0.41 E-score	0.0617 E-score	0.0346 E-score			0.205 E-score			0.426 E-score	
AGCGTAAA		0.0346 E-score	0.026 E-score	0.15 E-score	0.122 E-score	-0.0223 E-score	0.12 E-score		0.0199 E-score				
ATGCGTAA		0.00976 E-score		0.217 E-score	0.137 E-score	-0.063 E-score	0.115 E-score	0.175 E-score	0.0345 E-score		0.00479 E-score		
TGAAGGAA				0.0335 E-score	-0.0326 E-score	-0.195 E-score		-0.0181 E-score	0.469 E-score		0.0877 E-score		
ACGTAACG			0.389 E-score	0.359 E-score	-0.00534 E-score	0.078 E-score		0.411 E-score	0.118 E-score		0.436 E-score		0.272 E-score
GAGGAAAA			0.0119 E-score	0.12 E-score	0.0936 E-score	-0.0849 E-score		0.0333 E-score	0.402 E-score		0.033 E-score	0.152 E-score	-0.00498 E-score
AACGTACG		0.035 E-score	0.207 E-score	0.308 E-score	0.176 E-score	-0.0246 E-score	0.326 E-score	0.212 E-score	-0.011 E-score				
ACCTTTCC			0.0893 E-score	0.049 E-score	0.0964 E-score	0.0425 E-score	-0.0171 E-score	0.000505 E-score			-0.0568 E-score		
GCGTAATA			0.189 E-score	0.203 E-score	0.157 E-score	-0.0868 E-score			-0.0172 E-score				
CCCCACCC		0.274 E-score		-0.0158 E-score	0.428 E-score	-0.123 E-score		-0.0117 E-score	0.277 E-score		0.177 E-score		
ACCTTAAC				0.156 E-score	0.0943 E-score	0.0435 E-score	0.155 E-score	0.0261 E-score	0.16 E-score		0.0497 E-score	0.147 E-score	
